Assay results from US20240366779A1, “SELECTIVE DRUG RELEASE FROM INTERNALIZED CONJUGATES OF BIOLOGICALLY ACTIVE COMPOUNDS” (priority 2021, published 2024).

System: L428, DELBVR and Karpas299/Karpas299-BVR xenografts
Assay: Xenograft models for cAC10 camptothecin ADCs
Format: in vivo, mouse
Settings: single dose i.p.; L428 2 or 6 mg/kg, DELBVR 0.3 or 0.9 mg/kg, Karpas299/Karpas299-BVR 0.5 and 1.5 mg/kg; FIGS. 24-26
Description: All experiments were conducted in concordance with the Animal Care and Use Committee in a facility fully accredited by the Association for Assessment and Accreditation of Laboratory Animal Care. Efficacy experiments were conducted in the L428, KMH2, Karpas/Karpas-BVR, DelBVR, and Caki-1 xenografts models. Tumor cells, as a cell suspension, were implanted sub-cutaneous in immune-compromised SCID or nude mice. Upon tumor engraftment, mice were randomized to study groups (5 mice per group) when the average tumor volume reached about 100 mm3. The ADC or controls were dosed once via intraperitoneal injection. The average number of drug-linker attached to an antibody is indicated in the parenthesis next to the ADC (also referred to herein as Drug-Antibody Ratio (DAR) number, e.g., DAR4, DAR8, etc.). Tumor volume as a function of time was determined using the formula (L×W2)/2. Animals were euthanized when tumor volumes reached 750 mm3. Mice showing durable regressions were terminated after 10-12 weeks post implant.
Animals were implanted with L428 cells. […] Animals were evaluated for tumor size and in-life signs during the course of the study.
Animals were implanted with Del-brentuximab vedotin resistant (DELBVR) cells. […] Animals were evaluated for tumor size and in-life signs during the course of the study.
Animals were implanted with a 1:1 mixture of CD30+ Karpas299 and CD30− Karpas299-brentuximab vedotin resistant (Karpas299-BVR) cells. […] Animals were evaluated for tumor size and in-life signs during the course of the study.

Molecule	in vivo anti-tumor activity
cAC10-Compound 43(8) (conjugate, chains of the INN, looked up, Compound 43 payload, DAR 8) heavy: QIQLQQSGPEVVKPGASVKISCKASGYTFTDYYITWVKQKPGQGLEWIGWIYPGSGNTKYNEKFKGKATLTVDTSSSTAFMQLSSLTSEDTAVYFCANYGNYWFAYWGQGTQVTVSA[human IgG1 constant region left out] light: DIVLTQSPASLAVSLGQRATISCKASQSVDFDGDSYMNWYQQKPGQPPKVLIYAASNLESGIPARFSGSGSGTDFTLNIHPVEEEDAATYYCQQSNEDPWTFGGGTKLEIKRTVAAPSVFIFPPSDEQLKSGTASVVCLLNNFYPREAKVQWKVDNALQSGNSQESVTEQDSKDSTYSLSSTLTLSKADYEKHKVYACEVTHQGLSSPVTKSFNRGEC	displayed in vivo anti-tumor activities
cAC10-Compound 43a(8) (conjugate, chains of the INN, looked up, Compound 43a payload, DAR 8) heavy: QIQLQQSGPEVVKPGASVKISCKASGYTFTDYYITWVKQKPGQGLEWIGWIYPGSGNTKYNEKFKGKATLTVDTSSSTAFMQLSSLTSEDTAVYFCANYGNYWFAYWGQGTQVTVSA[human IgG1 constant region left out] light: DIVLTQSPASLAVSLGQRATISCKASQSVDFDGDSYMNWYQQKPGQPPKVLIYAASNLESGIPARFSGSGSGTDFTLNIHPVEEEDAATYYCQQSNEDPWTFGGGTKLEIKRTVAAPSVFIFPPSDEQLKSGTASVVCLLNNFYPREAKVQWKVDNALQSGNSQESVTEQDSKDSTYSLSSTLTLSKADYEKHKVYACEVTHQGLSSPVTKSFNRGEC	displayed in vivo anti-tumor activities
cAC10-Compound 43b(8) (conjugate, chains of the INN, looked up, Compound 43b payload, DAR 8) heavy: QIQLQQSGPEVVKPGASVKISCKASGYTFTDYYITWVKQKPGQGLEWIGWIYPGSGNTKYNEKFKGKATLTVDTSSSTAFMQLSSLTSEDTAVYFCANYGNYWFAYWGQGTQVTVSA[human IgG1 constant region left out] light: DIVLTQSPASLAVSLGQRATISCKASQSVDFDGDSYMNWYQQKPGQPPKVLIYAASNLESGIPARFSGSGSGTDFTLNIHPVEEEDAATYYCQQSNEDPWTFGGGTKLEIKRTVAAPSVFIFPPSDEQLKSGTASVVCLLNNFYPREAKVQWKVDNALQSGNSQESVTEQDSKDSTYSLSSTLTLSKADYEKHKVYACEVTHQGLSSPVTKSFNRGEC	displayed in vivo anti-tumor activities
